# ± gives the uncertainty stated by the source. The full ranking holds about 9,900 compounds; the median of “viability index relative to DMSO control” is about 1, and the lowest 2% start at about 0.85. This is one part of the list.
# System: Plasmodium falciparum NF54 stage V gametocytes
# Test: viability index relative to DMSO control (fraction); higher = less gametocyte killing
# Details: 2.5 µM, incubation time: 72 h
# Method in brief: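 Viability index is the count of red-stained particles in a well divided by the plate mean of solvent-only wells. Particles of 20–70 µm2 were counted in one imaged field per well after one to two hours with 3 µl of 2.5 µM MitoTracker Red CMXRos and 0.13% saponin. Before staining, P. falciparum NF54 stage V gametocytes in serum-free medium (0.75% gametocytemia, 1.25% hematocrit, 10 µl, 1,536-well plates) were kept with compound at 2.5 µM for 72 hr at 37°C under low oxygen.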
# [1] = library set: Broad Institute DOS
Compound,viability index [1],viability index (library set: Broad Institute Blood Stage)
C[C@@H]1CCCCO[C@H](CN(C)C(=O)CCCN(C)C)[C@@H](C)CN([C@H](C)CO)C(=O)c2cc(NC(=O)Nc3ccc4c(c3)OCO4)ccc2O1,1.05 ± 0.013,
O=C(C[C@H]1C=C[C@H](NC(=O)Cc2cccnc2)[C@H](CO)O1)NCc1ccc2c(c1)OCO2,1.11 ± 0.084,
COc1cccc(CNC(=O)C[C@H]2CC[C@H]3[C@H](COc4ccc(NC(=O)c5cccs5)cc4C(=O)N3C)O2)c1,0.909 ± 0.067,
OC[C@@H]1Nc2ccc(C3=CCCCC3)cc2[C@@H]2[C@H]1CCN2Cc1nccs1,1.06 ± 0.059,
COc1ccc(CN(C)C[C@H]2OCc3cnnn3CCCC(=O)N([C@@H](C)CO)C[C@H]2C)cc1,1.01 ± 0.043,
C[C@@H]1CN([C@H](C)CO)C(=O)CCCn2nncc2CO[C@H]1CN(C)C(=O)c1ccc2ccn(C)c2c1,0.999 ± 0.036,
O=C(Nc1ccc(F)cc1)N1[C@@H](CO)[C@@H]2c3ccccc3NC[C@@H]21,0.982 ± 0.079,
COc1ccc(S(=O)(=O)N2CC[C@@H]3[C@H]2c2cc(Br)ccc2N[C@@H]3CO)cc1,1.07 ± 0.097,
CN1C(=O)c2cc(NC(=O)NCc3ccccc3)ccc2OC[C@H]2O[C@@H](CC(=O)NCC3CCCCC3)CC[C@H]21,1.14 ± 0.052,
CS(=O)(=O)N1[C@@H]2Cn3c(ccc(-c4cccc(F)c4)c3=O)[C@H]1[C@@H](C(=O)N1CCCCC1)[C@@H]2CO,0.966 ± 0.057,
C/C=C/c1ccc([C@@H]2[C@H](CO)N(CC3CC3)C23CN(C(=O)c2ccc4c(c2)OCO4)C3)cc1,1.11 ± 0.062,
O=C(C[C@@H]1CC[C@@H]2[C@H](COC[C@@H](O)CN2C(=O)c2cnccn2)O1)NCc1ccc(Cl)cc1,0.981 ± 0.017,
COc1ccc(C#Cc2ccc([C@@H]3[C@@H](CO)N4C(=O)CN(C(=O)c5ccc(F)cc5)C[C@H]34)cc2)cc1,1.076 ± 0.0071,
CN1C(=O)c2cc(NS(=O)(=O)c3cccc(F)c3)ccc2OC[C@H]2O[C@@H](CC(=O)NCCN3CCCCC3)CC[C@H]21,0.924 ± 0.052,
Cc1noc(C)c1S(=O)(=O)N(C)C[C@H]1Oc2c(NS(=O)(=O)c3cn(C)cn3)cccc2C(=O)N([C@@H](C)CO)C[C@@H]1C,1.029 ± 0.0067,
COc1ccc2c3c([nH]c2c1)[C@H](CO)N(Cc1ccncc1)C[C@]31CCN(CC2CCOCC2)CC1,0.974 ± 0.033,
C(=C\c1ccc([C@@H]2[C@@H]3CN(Cc4nccs4)C[C@H]2N3)cc1)/c1ccccc1,1.02 ± 0.065,
Cc1noc(C)c1S(=O)(=O)Nc1ccc2c(c1)C(=O)N([C@@H](C)CO)C[C@@H](C)[C@@H](CN(C)Cc1ccc(C(=O)O)cc1)OCCCC[C@H](C)O2,1.14 ± 0.046,
C[C@@H]1CN([C@H](C)CO)C(=O)c2ccccc2-c2ccccc2CO[C@@H]1CN(C)C(=O)CCC(F)(F)F,0.935 ± 0.14,
COc1cccc(C#Cc2ccc3c(c2)[C@@H]2[C@@H](CCN2C(=O)c2ccccc2F)[C@H](CO)N3)c1,1.05 ± 0.081,
C[C@H](CO)N1C[C@H](C)[C@@H](CN(C)CC2CCCCC2)OCc2cnnn2CCCC1=O,1.08 ± 0.019,
CCCC(=O)Nc1ccc2c(c1)C(=O)N(C)[C@@H]1CC[C@H](CC(=O)N3CCCCC3)O[C@H]1CO2,1.121 ± 0.0028,
CN1C(=O)c2cc(NC(=O)c3cscn3)ccc2OC[C@@H]2O[C@H](CC(=O)N3CCOCC3)CC[C@H]21,1.15 ± 0.03,
C[C@H](CO)N1C[C@H](C)[C@@H](CN(C)Cc2cccc(C(F)(F)F)c2)OCc2cnnn2CCCC1=O,0.982 ± 0.056,

Compound,viability index [1],viability index (library set: Broad Institute Blood Stage)
COc1cccc(S(=O)(=O)Nc2ccc3c(c2)C(=O)N(C)C[C@H](OC)[C@@H](C)CN(Cc2ccccc2F)[C@H](C)CO3)c1,0.99 ± 0.042,
CC(C)C#Cc1ccc([C@@H]2[C@@H](CO)N3C(=O)CN(S(=O)(=O)c4ccccc4)C[C@@H]23)cc1,0.986 ± 0.0062,
COc1ccc2c3c([C@H](CO)N(C[C@]33CN(C3)C(=O)c3cccc(F)c3)C(=O)c3cccc(F)c3)n(C)c2c1,1.04 ± 0.047,
C[C@@H]1CN([C@@H](C)CO)C(=O)c2cc(NC(=O)C3CCCCC3)ccc2O[C@H]1CN(C)C(=O)Nc1ccc(C(F)(F)F)cc1,1.03 ± 0.11,
O=C(C1CCOCC1)N1CC2(C1)[C@@H](c1ccccc1)[C@@H](CO)N2C(=O)CC1CC1,1.017 ± 0.01,
COc1ccc(S(=O)(=O)Nc2cccc3c2O[C@H](CN(C)CC2CCCCC2)[C@H](C)CN([C@H](C)CO)C3=O)cc1,1.01 ± 0.057,
C[C@H]1CN([C@@H](C)CO)S(=O)(=O)c2ccc(-c3cccc(C#N)c3)cc2O[C@H]1CN(C)C(=O)c1ccccc1,0.982 ± 0.012,
CO[C@@H]1CN(C)C(=O)c2ccc(NC(=O)c3ccno3)cc2OC[C@H](C)N(S(C)(=O)=O)C[C@@H]1C,1.078 ± 0.007,
C[C@H]1CN([C@@H](C)CO)S(=O)(=O)c2ccc(C#Cc3ccccc3F)cc2O[C@H]1CN(C)C(=O)Cc1cccnc1,0.905 ± 0.06,
COc1cccc(S(=O)(=O)N[C@H]2CC[C@@H](CC(=O)NC3Cc4ccccc4C3)O[C@@H]2CO)c1,0.999 ± 0.044,
C[C@@H]1CN([C@H](C)CO)C(=O)c2ccccc2-c2ccccc2CO[C@H]1CN(C)C(=O)[C@H]1CCCN1C,1.06 ± 0.14,
O=C(Nc1ccccc1F)N1C[C@@H]2[C@H](c3ccccc31)[C@@H](CO)N2C(=O)Cc1cccnc1,1.1 ± 0.068,
CNC[C@@H]1Oc2c(N)cccc2C(=O)N([C@@H](C)CO)C[C@@H]1C,1.04 ± 0.084,
C[C@@H]1CN([C@H](C)CO)C(=O)CCCn2cc(nn2)CO[C@@H]1CN(C)C(=O)NC1CCCCC1,0.984 ± 0.053,
COCC(=O)N1CC(=O)N2[C@@H](CO)[C@H](c3ccc(-c4ccncc4)cc3)[C@@H]2C1,1.04 ± 0.056,
O=C(c1cccnc1)N1CC2(C1)[C@H](c1ccccc1)[C@@H](CO)N2Cc1ccc(Cl)cc1,1.11 ± 0.11,
C[C@H](CO)N1C[C@H](C)[C@@H](CN(C)Cc2ccncc2)Oc2c(cccc2N(C)C)C1=O,1.05 ± 0.1,
C[C@H](O)C#Cc1ccc([C@@H]2[C@H](CO)N3CCCCN(C(=O)c4ccc5c(c4)OCO5)C[C@@H]23)cc1,1.02 ± 0.046,
CCCNC(=O)Nc1ccc2c(c1)OC[C@H](C)N(C(=O)C1CCOCC1)C[C@H](C)[C@@H](OC)CN(C)C2=O,1.06 ± 0.055,
O=C(C[C@@H]1CC[C@H]2[C@@H](COC[C@@H](O)CN2C(=O)c2cnccn2)O1)NCc1ccc(Cl)cc1,1.01 ± 0.13,
C[C@@H]1CN([C@H](C)CO)C(=O)Cc2cc(NS(=O)(=O)c3ccc(Cl)cc3)ccc2O[C@H]1CN(C)C(=O)Nc1ccc(C(F)(F)F)cc1,1.02 ± 0.054,
COCCN(C[C@H]1[C@H](c2ccccc2)[C@@H](CO)N1C(=O)C1CC1)C(C)=O,1.02 ± 0.029,
O=C1NCCOCc2cn(nn2)CC[C@@H]1Cc1ccc(F)cc1,1.04 ± 0.1,
COc1ccc2c3c([C@@H](CO)N(Cc4cc(OC)cc(OC)c4)C[C@]33CCN(CC3)C(=O)Nc3c(C)noc3C)n(C)c2c1,1.07 ± 0.045,

Compound,viability index [1],viability index (library set: Broad Institute Blood Stage)
COc1ccccc1C#Cc1ccc([C@@H]2[C@H](C#N)N(C(=O)C3CCC3)[C@H]2CO)cc1,1.03 ± 0.09,
O=C(Nc1ccc2c(c1)[C@@H]1C[C@H](CC(=O)N3CCc4ccccc4C3)O[C@@H](CO)[C@@H]1O2)c1ccc2c(c1)OCO2,0.991 ± 0.038,
C[C@H](NC(=O)C[C@H]1C=C[C@@H](NS(=O)(=O)c2cccc(F)c2)[C@H](CO)O1)c1ccccc1,1.12 ± 0.15,
O=C(Nc1cc(F)ccc1F)N1CCCCN2[C@H](C1)[C@H](c1ccc(C3=CCCCC3)cc1)[C@@H]2CO,1.04 ± 0.075,
O=C1CNC[C@@H]2[C@H](c3ccc(C#Cc4cccnc4)cc3)[C@H](CO)N12,0.992 ± 0.022,
CCNC(=O)[C@@H]1[C@@H](CO)[C@@H]2Cn3c(ccc(-c4cccc(F)c4)c3=O)[C@@H]2N1C(=O)Cc1cccnc1,1.093 ± 0.0084,
O=C(C1CCOCC1)N1C[C@H]2[C@@H](c3ccccc31)[C@H](CO)N2C(=O)Nc1ccccc1F,1.048 ± 0.0035,
C/C=C/c1cnc2c(c1)C(=O)N([C@H](C)CO)C[C@H](C)[C@@H](CN(C)CC1CCOCC1)O2,1 ± 0.044,
CO[C@@H]1CN(C)C(=O)c2cc(NS(C)(=O)=O)ccc2OC[C@@H](C)N(C(=O)C2CCOCC2)C[C@@H]1C,1.17 ± 0.07,
COc1ccc2c3c([C@H](CO)NC[C@]33CCN(CC3)C(=O)Nc3ccc(F)cc3F)n(C)c2c1,0.9976 ± 0.0076,
O=C(Nc1cc(F)ccc1F)N1CCCCN2[C@H](CO)[C@H](c3ccc(C4=CCCCC4)cc3)[C@@H]2C1,0.935 ± 0.14,
Cc1noc(C)c1NC(=O)Nc1ccc2c(c1)C(=O)N(C)[C@H]1CC[C@H](CC(=O)N[C@@H]3CCN(Cc4ccccc4)C3)O[C@H]1CO2,1.11 ± 0.069,
O=C(CC1CC1)NC[C@H]1N[C@H](CO)[C@@H]1c1ccc(-c2ccc(F)cc2)cc1,1.02 ± 0.044,
C/C=C/c1ccccc1[C@H]1[C@@H](C#N)N(C(C)=O)[C@@H]1CO,1.1 ± 0.19,
COc1ccccc1C#Cc1ccc([C@H]2[C@@H](CO)N(C(=O)C3CC3)[C@H]2C#N)cc1,,0.849 ± 0.047
C[C@@H]1CN([C@@H](C)CO)C(=O)c2cc(NC(=O)NC3CCCCC3)ccc2O[C@@H]1CN(C)S(C)(=O)=O,0.93 ± 0.026,
C[C@H]1CN([C@@H](C)CO)C(=O)Cc2cc(NS(=O)(=O)c3ccc(F)cc3)ccc2O[C@@H]1CN(C)Cc1ccncc1,0.991 ± 0.029,
COc1ccc(NC(=O)N(C)C[C@H]2OCCCC[C@@H](C)Oc3ccc(NC(=O)c4ccncc4)cc3C(=O)N([C@H](C)CO)C[C@@H]2C)cc1,1.1 ± 0.045,
O=C(Nc1ccccc1)N1CC(=O)N2[C@@H](CO)[C@H](c3ccc(C#CC4CCCCC4)cc3)[C@@H]2C1,1.03 ± 0.035,
COc1ccc(NC(=O)N[C@@H]2CC[C@@H](CCNC(=O)CN3CCOCC3)O[C@@H]2CO)cc1,1.06 ± 0.064,
COCC(=O)N1[C@H](C#N)[C@@H](c2ccc(C#Cc3ccccc3F)cc2)[C@H]1CO,1.04 ± 0.053,
Cc1ccccc1-c1ccc([C@@H]2[C@@H]3CN(C(=O)c4ccc(F)cc4)C[C@H]2N3)cc1,0.938 ± 0.019,
C[C@H](CO)N1C[C@H](C)[C@H](CN(C)S(=O)(=O)c2ccc(Oc3ccccc3)nc2)OCc2cnnn2CCCC1=O,1.03 ± 0.022,

# Source: the supplement of paper PMC4723716
